Measurements from the supplement of paper PMC10681739.
Whole data set: some 2,700 sequences, median “arbitrary fluorescence units” near 4,100, cut for the highest 2% near 54,000. Some of the results follow.

The sequences below were run against T1, ETS1 (UniProt P14921) (assay: ETS1 binding intensity (PBM fluorescence) (arbitrary fluorescence units); higher = stronger binding). Conditions: ETS1 concentration 10 nM.
T1 sequence: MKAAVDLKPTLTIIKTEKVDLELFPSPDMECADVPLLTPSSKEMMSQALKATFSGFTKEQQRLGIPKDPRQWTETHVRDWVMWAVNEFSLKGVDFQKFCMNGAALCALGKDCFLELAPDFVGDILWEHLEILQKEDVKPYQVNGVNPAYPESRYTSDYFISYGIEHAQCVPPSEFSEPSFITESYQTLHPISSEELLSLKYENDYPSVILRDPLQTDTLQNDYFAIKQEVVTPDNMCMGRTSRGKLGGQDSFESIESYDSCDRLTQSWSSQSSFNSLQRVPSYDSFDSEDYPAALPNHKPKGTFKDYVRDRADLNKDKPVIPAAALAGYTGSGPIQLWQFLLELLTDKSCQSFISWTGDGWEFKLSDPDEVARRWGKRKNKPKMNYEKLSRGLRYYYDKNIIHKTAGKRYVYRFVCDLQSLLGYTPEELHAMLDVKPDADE
Description: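 gcPBM on wild-type 36-bp genomic probes with two neighbouring ETS1 sites (4-24 bp apart). Recombinant human ETS1 (10 nM) was detected with anti-ETS1 antibody fluorescence. Values are medians over 3 replicate spots. The probes sit in constant array flanks that are not printed.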

Row | Sequence | ETS1 binding intensity
1 | ATTTACCGGATTACTAGCAAATTCAGGAAATGAGCC | 469
2 | CGTCCCCAGGTTTCCGGCAGGCTTCCGCACTCACAG | 8590
3 | AACACGGATGTTTGCATTCCACAGGGATTCCTGTTG | 397
4 | GCACCAACATCCTGTCTGCCCTGTTTCCTACTGAGG | 35600
5 | GTGATGCATCCTGCCATGCAGGGCACATCCTGAAAG | 9450
6 | CATACTGCAGGAAGGAGCAACATTTCCTGCATTTGT | 1950
7 | GCAGAGCGGAAGCGGCGGCGGGAGCTTCCGGGAGGG | 12400
8 | AGACCCGGATGTAGGCAAAAACTACATTTCCCAGAA | 8580
9 | AGATGGGAAGTAGGAGAAAATGCTCTCTTCCTGTTT | 1200
10 | ATCTGCAGGATGTAAGAAGAATAGAAGGAAGCTGGG | 1930
11 | AACCAACAACTTACTTCCTTCCGGGTTTGGTGCAGA | 5690
12 | TTGGGCTTCCGGAGCCAAAAGGCCCCGGAAGTGGTC | 17500
13 | CCCTCACTTCCTGCCACGCAGCCTGCTTCCTAGCCG | 29300
14 | CACAGAGAGGAAACGGAGGTGCCCGGAATGTTGATA | 523
15 | GGGCCGCGGAACCGGACCGGCCGCGTTTCCGCAGCC | 262
16 | GAGCTCCCGGAAGTTGCCGGACCCGGAACGCAGGCG | 11000
17 | AAATTGAACAGCGGAAGTACTTCCTTGGTCGGACCC | 13900
18 | AACCCACAGGAAGCTCACATGCTATTTCCTAGACAC | 2020
19 | GTCGGGAGGGGAAGTGAGGCGGTTTCCTCGGCGCCT | 755
20 | TTTACTGACAGGAAGCCATCAAGGAAATAGTTGCCT | 2000
21 | AAGAAGCGAGACTTCCTCCCTTCCTGCTGCCTGGCT | 6600
22 | GCGGCTTGGGCCTTCCGGCTTTCCGTCCGCCGCGGC | 7060
23 | CGGGGTTGCCTGTTTCCTCTTCCCATTATTCCGGCC | 1440
24 | AGGTGGGCTTCCTGCTTCTCCTCTCATCCTGGGTCC | 9680
25 | TATTGCATTTAGGGAAGTGTTTCCGTCTTGGTTTGC | 1190

Row | Sequence | ETS1 binding intensity
26 | GATCGTGCTTCCGCCCCACGCCGAGGAAACGCCTGC | 18500
27 | CATACTACAGCGGAAAAAAAACATCCTTTCTCTAGG | 309
28 | ACTACCGTTGGTTTCCGCAACTTCCTGGATTATCCT | 7390
29 | TCCTCCTCACTTCCGCCGGAGCGGAAACGGTGAGGA | 31200
30 | TGCTTCTGGTGGTTCCGGCGCTTCCTCGGAGCGCGC | 1600
31 | AGACACAGGAAGCTCCAGTGCAGAGAGGAAGTGCTA | 4410
32 | TTTTGACATTTCCTGCGGACTATTTCCTGTCACTAC | 21500
33 | GCTTGGACCGGAAGGTCTGCAGGAGGAAGGACTGCC | 7460
34 | AGCAGTCACTTCCCTGTCTCTGGGGGAAGTTCAGGG | 2340
35 | GGCCTTTGCGCCCGGAACCGGAAGCGATCGCTCGCC | 7280
36 | GCACCCGGAAGCCGCTTGCGGGCTCCCGGAAGCGGC | 8720
37 | TGAGGTGGTATCCTGTGCATTGTAGGATGTTTAGCA | 2920
38 | GACTTCCCCACTTCCGTCGGGTTCCACCCATGCGCT | 11700
39 | CGGCTTCCGGCTATGGGTACCGCGGGCCGGAAGTGT | 32200
40 | CGGGAGCAGCGGAAGTCATTAACATCCGCGGTTGTG | 12500
41 | CCTGACCCGGAACTCGGAGGCGTGCTTCCTCCACCC | 533
42 | CTCCGCCTTCCGGCTCAGAATTGTGAGGAAACCCGC | 14200
43 | AGTAGAGAGGCCGGAAGAACCATCCGCAGAGGGTCA | 3290
44 | GTCGGCTTCCTGGGGAGCAGGGCTCATTTCCTAAAT | 6060
45 | CCGCGCTTCCTCTGCTTTCGGTTTCGCTTCCGCCTC | 9270
46 | CAACATCAAGCCGGAAGCCCAGGAAGGGGCGTTTTG | 4180
47 | TTGTCACAGTGGTTCCGCCTTTCCGGTCCCACCCAC | 4730
48 | TTCTACTTCCGCTATCAGGAGATCTACTTCCGGGCC | 28100
49 | GGGAGGAAGGCAGCCGTCCGCTGCCCCGGGAAGCCG | 182
50 | TGGTAGCTGCATTTCCCCAGAGGAAGTGGTGTGTGC | 451

Row | Sequence | ETS1 binding intensity
51 | CCTCCACATCCTGGGCTTAACTGATCTTCCTGCCTC | 3960
52 | AAAGCGCATTGCGGATGGCAATTCCGGTGCGTCATT | 732
53 | TGAACAGGAAACCTGAAAGGACTGGCAGGAAGTCGG | 3470
54 | TTGGACTTCCCCTTTCTCAAAATACAGGAAGTCTGT | 5790
55 | TGCACCACCATCCGCCTGCTCACATCCTGCCTGCCT | 3530
56 | GAGAACTTCCGGCTGCAGTACAACCATTTCCGGGCT | 68300
57 | ATCAATGTTGAGCGGAAACTTCCGTCAGGCTTTGAA | 2270
58 | TCAGCATAATTAGGAAACTGCTTCCTCTGGACGTGC | 236
59 | AGCATTCCACTTCCTGTCTTGATTCCTGTATTAGAG | 62700
60 | TGTGGCGGTTTCGGAAGCTCCTTCCTGGGGCTCCAA | 478
61 | CTCTTTGCTTTCCGGTATGTGGCAGGAACCTTGGAC | 14500
62 | TCCGCTCGGGCGGAACTACGTTTCCCGGCATGCACT | 458
63 | AGGCACTTCCGTTGAGCATCTAGACGTTTCCTTGGC | 35300
64 | AGGTAACTGGGGAGGAAGAGGATGTTACGAAAAGCG | 374
65 | GGCGCCTTCCGCAGAGGGACTGCGGCTTCCTGCGCA | 3990
66 | GTGGAGGATGTCGGAACGTATCTAGATGGGAAGTGG | 381
67 | GCACCGGAAGTGACCGCCTCGCGGCTGCTTCCTCTC | 57700
68 | GTTTTCACTTCCTTTTCAGAGCTGTATCCGGGTCGC | 12900
69 | ACACTTCCTGCAGTAGCTTTCATCACATTTCCTCTG | 30400
70 | TTACCGGAAGAAGCGAAGAGCAGCGATTTCCTTCCA | 7870
71 | CTGGGGGTCCGGATGCTTTGCGTTTCCCAGCAGTTG | 1230
72 | CGTAGGCTTTCCGCAATATCAGTGGGGAAGTTAGAC | 277
73 | GCCGCGTCTCCTTCCGCCGCCCGGAAATCAGGGCCC | 7820
74 | TTGTTCTTTTAAGGAAATGTCTTCCTGGCCGCCTGA | 256
75 | CAACCATAGTACAGGAAGCAGGAAGCTCACTGAAGC | 2990

Row | Sequence | ETS1 binding intensity
76 | GCGCGAGGGCCGCTTCCGCTTCCGTCAGGGGAGGCC | 20800
77 | GCAGAGCATCCGCGCCCTGCGCGACTTCCTGCGCAA | 6040
78 | ATGGTCAAGGGAAGTACTACCATTTCCTGTGGGTTA | 4990
79 | GCAGTGACGGGAAACCAAGAGCAGGAAAAGCAACCC | 389
80 | CACTGGAGCTGCTTCCTAGTTTCCATTTCCGGGCCG | 3840
81 | GACCATTTCCTGATACTCATGACCACTTCCTCTCAT | 28400
82 | CTCCGGGCAGGAAAGGGCGGTAGCTTCCTCCAGCAG | 784
83 | CTGGGGACACAGGAAGTATAGTTTCCTGCCTTCAGA | 12500
84 | GGGTCGGAAACAGCCGCTCCGCGCCGCTTCCGCTGA | 1230
85 | GGTTGGGGTGGCTTCCCGGAGGAAGTGATAACTCAG | 943
86 | GGTTCAGCCGGGAAATGTGTTCAGGATGTGCCATGG | 276
87 | TGCGCCGGAAAGCGCGCCGCTCTGTTTTCCTGGCAA | 431
88 | ACTGCCTTCCTGAATTACTAGGTCCAGGAAGTGTGG | 1130
89 | CTCCCCCGGAAGTGAAAGTGCGGGGATCCGCCGGCC | 11400
90 | TGAACCAATGAGGAAGCCAAACTTCCTCTGGCCTGG | 773
91 | GTCAAGGAGGAAACCTTCATGCACGGAAGTTTCTCG | 219
92 | AAAGGCGGCGGAAGGTGATCGAATTCCGGTGATGCG | 895
93 | CAGCTGGTGCCATCCGCCCACGGGAAGTGTTTGGTT | 715
94 | GACTCATGCCACTTCCTGCACTTCCTCCTGACCTCC | 13500
95 | GTCCTGCCTCCCGGAAGTGATTTCCTCTGGGTTACG | 14300
96 | TGGCCCGGAACACGCTGTCCTCGCGCTTCCGCCGGG | 813
97 | TGATTTCCGCTTTCTCCCCAGTGATTGCTTCCTTCA | 68300
98 | GACCACAGGAAATGCCAAAAACCACTTCCCATGGTT | 14400
99 | TGGAAAGGAAATAAATTCCAAAGGCAGGAAGTGACC | 2640
100 | GATATTTCCTGGTGGTCGCTGTAATACGGAAAACTT | 14000

Row | Sequence | ETS1 binding intensity
101 | CGCCTTTCACTTTCCGCCCTCTTTCCGCCCCCTTCT | 1750
102 | TGGGCTGGGCTTCCTCTTTTCACTTCCTTGGGGTAG | 2310
103 | CAGGATGAGGAAACGTGGTTAACAGGAAGAAGCCCT | 554
104 | TAGTCAGGAAACCACAGATGCTGGAGAGGATGTGGA | 275
105 | ATCACATCCTGAAGGCTTGTGCTTGGCAGGAAGCAA | 7540
106 | CTTTTCATCAACCCGGAAGGAAGCAGCCGCCGGTCG | 736
107 | GGTTGCCAGCAGGAAGGCAGGTTTCCTCACACCAAG | 294
108 | GGGCAGGAAAGCCCATTCCCTACAGCCCGGAACTCC | 204
109 | ACCACTCACTCCAGGAAAAGGAAGTGGCAGGTGTGA | 654
110 | CGCCTTTTCCGCGTCACTCCGTAACCGGAAGTGAAT | 14300
111 | GAGGTCTCAGGAAACTAACCTTGTTTCCTGGTGCTG | 443
112 | CCCATGGGCACATCCCCTCTGGGGAAGTGAGGGAGC | 405
113 | CTTTGAAAGGAAGCTGCTTTAGCATATCCTTTCTGT | 572
114 | TTTCTGGCTCTGCTTCCTGCTTCCTCTGGATGGACG | 6620
115 | TCAAAGGGAAATGGTTTTAGTGGTTCAGGAAATGAA | 345
116 | GTTGGCAGAGGAAGCTCACCCCGAGGAAGTCTCTCG | 258
117 | GGAGCGGAAAAGTAATTTGATCCCGCATTTCCTGCT | 2090
118 | CGCCGCCATCCGCCGCCGCAGCCAGCTTCCGCCGCC | 3580
119 | GGAGGTCGCAGCCGGAAGCGGAAGAGGCGCTCGGAG | 6900
120 | CTAATGCTGCATAGGAAGGGGGATGTGGCTGCAGGA | 244
121 | CAGCTTTAACATCCTGTTGCATATCCTTGGTAGAAC | 21500
122 | AAACGGAAGCCCAGCGTCACCAGCTTGCTTCCTGAG | 476
123 | GCCCCTCCACCCTTCCTGCCCGGAAGTCCTGCGCGC | 6050
124 | CTATGGTAGGAAACCCAGAAAACAGGAAGTGGCCTC | 3030
125 | TGAGCACATCCTCGCCGGCGCCCCCTTCCGCGCTGC | 1410
